# This is one part of the list.
# B1: DCAL1 (Homo sapiens), Q8IZS7 (protein)
# chain: MVSNFFHVIQVFEKSATLISKTEHIGFVIYSWRKSTTHLGSRRKFAISIYLSEVSLQKYDCPFSGTSFVVFSLFLICAMAGDVVYADIKTVRTSPLELAFPLQRSVSFNFSTVHKSCPAKDWKVHKGKCYWIAETKKSWNKSQNDCAINNSYLMVIQDITAMVRFNI
# Legend:
# Experiment in all cases: glycan array binding signal (z-score within array); higher = stronger binding
# Conditions in all cases: glycan notation: IUPAC condensed, linker removed
# [1] = target: Man(a1-2)Man(a1-2)Man(a1-3)Man
# In short: (§1)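 Glycan array binding is given as a within-array Z-score, which can be read as non-binding when negative. The arrays, 3228 of them, came from the Consortium for Functional Glycomics database and were retained only where the protein sequence was available. Z-scores were averaged across arrays of the same protein sequence at different concentrations or buffers and across linkers.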
# [2] = target: Man(a1-2)Man(a1-2)Man(a1-6)[Man(a1-3)]Man
# In short: as §1
# [3] = target: Man(a1-2)Man(a1-3)Man
# In short: as §1
# [4] = target: Man(a1-2)Man(a1-3)[Man(a1-2)Man(a1-6)]Man
# In short: as §1
# [5] = target: Man(a1-2)Man(a1-3)[Man(a1-2)Man(a1-6)]Man(a1-6)[Man(a1-2)Man(a1-2)Man(a1-3)]Man(b1-4)GlcNAc(b1-4)GlcNAc
# In short: as §1
# [6] = target: Man(a1-2)Man(a1-3)[Man(a1-6)]Man(a1-6)[Man(a1-2)Man(a1-3)]Man(b1-4)GlcNAc(b1-4)GlcNAc
# In short: as §1
# [7] = target: Man(a1-2)Man(a1-6)[Man(a1-3)]Man(a1-6)[Man(a1-2)Man(a1-2)Man(a1-3)]Man(b1-4)GlcNAc(b1-4)GlcNAc
# In short: as §1
# [8] = target: Man(a1-3)[Man(a1-6)]Man
# In short: as §1
# [9] = target: Man(a1-3)[Man(a1-6)]Man(a1-6)[Man(a1-2)Man(a1-3)]Man(b1-4)GlcNAc(b1-4)GlcNAc
# In short: as §1
# [10] = target: Man(a1-3)[Man(a1-6)]Man(a1-6)[Man(a1-3)]Man(b1-4)GlcNAc(b1-4)GlcNAc
# In short: as §1
# [11] = target: Man(a1-3)[Man(a1-6)]Man(b1-4)GlcNAc(b1-4)GlcNAc
# In short: as §1
# [12] = target: Man(b1-4)GlcNAc
# In short: as §1
# [13] = target: Neu5Ac(a2-3)Gal
# In short: as §1
# [14] = target: Neu5Ac(a2-3)Gal(b1-3)GalNAc
# In short: as §1
# [15] = target: Neu5Ac(a2-3)Gal(b1-3)GalNAc(b1-3)Gal(a1-4)Gal(b1-4)Glc
# In short: as §1
# [16] = target: Neu5Ac(a2-3)Gal(b1-3)GalNAc(b1-3)Gal(b1-4)GlcNAc
# In short: as §1
# [17] = target: Neu5Ac(a2-3)Gal(b1-3)GalNAc(b1-4)[Neu5Ac(a2-3)]Gal(b1-4)Glc
# In short: as §1
# [18] = target: Neu5Ac(a2-3)Gal(b1-3)GalNAc6S
# In short: as §1
# [19] = target: Neu5Ac(a2-3)Gal(b1-3)GlcNAc
# In short: as §1
# [20] = target: Neu5Ac(a2-3)Gal(b1-3)GlcNAc6S
# In short: as §1
# [21] = target: Neu5Ac(a2-3)Gal(b1-3)[Fuc(a1-4)]GlcNAc
# In short: as §1
# [22] = target: Neu5Ac(a2-3)Gal(b1-3)[Fuc(a1-4)]GlcNAc(b1-3)Gal(b1-4)[Fuc(a1-3)]GlcNAc
# In short: as §1
# [23] = target: Neu5Ac(a2-3)Gal(b1-3)[Neu5Ac(a2-3)Gal(b1-4)]GlcNAc
# In short: as §1
# [24] = target: Neu5Ac(a2-3)Gal(b1-3)[Neu5Ac(a2-6)]GalNAc
# In short: as §1
# [25] = target: Neu5Ac(a2-3)Gal(b1-4)Glc
# In short: as §1
# [26] = target: Neu5Ac(a2-3)Gal(b1-4)GlcNAc
# In short: as §1
# [27] = target: Neu5Ac(a2-3)Gal(b1-4)GlcNAc(b1-3)Gal(b1-4)GlcNAc
# In short: as §1
# [28] = target: Neu5Ac(a2-3)Gal(b1-4)GlcNAc(b1-3)Gal(b1-4)GlcNAc(b1-3)Gal(b1-4)GlcNAc
# In short: as §1
# [29] = target: Neu5Ac(a2-3)Gal(b1-4)GlcNAc(b1-3)Gal(b1-4)[Fuc(a1-3)]GlcNAc
# In short: as §1
# [30] = target: Neu5Ac(a2-3)Gal(b1-4)GlcNAc6S
# In short: as §1
# [31] = target: Neu5Ac(a2-3)Gal(b1-4)[Fuc(a1-3)]GlcNAc
# In short: as §1
# [32] = target: Neu5Ac(a2-3)Gal(b1-4)[Fuc(a1-3)]GlcNAc(b1-3)Gal
# In short: as §1
# [33] = target: Neu5Ac(a2-3)Gal(b1-4)[Fuc(a1-3)]GlcNAc(b1-3)Gal(b1-4)GlcNAc
# In short: as §1
# [34] = target: Neu5Ac(a2-3)Gal(b1-4)[Fuc(a1-3)]GlcNAc(b1-3)Gal(b1-4)[Fuc(a1-3)]GlcNAc(b1-3)Gal(b1-4)[Fuc(a1-3)]GlcNAc
# In short: as §1
binder,measurement,setting,value
B1,glycan array binding signal (z-score),[1],-0.079
same,glycan array binding signal (z-score),[2],-0.251
same,glycan array binding signal (z-score),[3],-0.228
same,glycan array binding signal (z-score),[4],-0.154
same,glycan array binding signal (z-score),[5],5.03
same,glycan array binding signal (z-score),[6],0.005
same,glycan array binding signal (z-score),[7],-0.215
same,glycan array binding signal (z-score),[8],-0.223
same,glycan array binding signal (z-score),[9],-0.171
same,glycan array binding signal (z-score),[10],-0.211
same,glycan array binding signal (z-score),[11],-0.241
same,glycan array binding signal (z-score),[12],-0.341
same,glycan array binding signal (z-score),[13],-0.264
same,glycan array binding signal (z-score),[14],-0.194
same,glycan array binding signal (z-score),[15],-0.212
same,glycan array binding signal (z-score),[16],-0.256
same,glycan array binding signal (z-score),[17],-0.271
same,glycan array binding signal (z-score),[18],-0.149
same,glycan array binding signal (z-score),[19],-0.253
same,glycan array binding signal (z-score),[20],-0.231
same,glycan array binding signal (z-score),[21],-0.236
same,glycan array binding signal (z-score),[22],-0.264
same,glycan array binding signal (z-score),[23],-0.289
same,glycan array binding signal (z-score),[24],-0.213
same,glycan array binding signal (z-score),[25],-0.211
same,glycan array binding signal (z-score),[26],-0.2
same,glycan array binding signal (z-score),[27],-0.253
same,glycan array binding signal (z-score),[28],-0.229
same,glycan array binding signal (z-score),[29],-0.269
same,glycan array binding signal (z-score),[30],-0.184
same,glycan array binding signal (z-score),[31],-0.192
same,glycan array binding signal (z-score),[32],-0.265
same,glycan array binding signal (z-score),[33],-0.191
same,glycan array binding signal (z-score),[34],-0.127
